# Experimental data from PubChem BioAssay AID651820 (National Center for Advancing Translational Sciences (NCATS), 2012).
# About 12,000 (3.5%) of roughly 340,000 compounds were called active. The inconclusive results got no clear call from the source; some entries with a clear call stand among them for comparison. Calls come from the whole dose curve; as a rule, active = well fitted inhibition curve with a large enough effect; inconclusive = small, poorly fitted or top-dose-only effect, or another doubt; inactive = no such curve, though single readings can be large or run the other way. Potencies of inconclusive entries are left out as doubtful fits.
# Test: qHTS Assay for Inhibitors of Hepatitis C Virus (HCV)
# Conditions: Huh7.5.1 HCVcc-Cre (HCVcc is cell-culture hepatitis C virus) infection, luciferase reporter, 44 h; activity change, negative = inhibition: at 41.8 µM (top of the series) unless noted
# Outline: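 After 44 h co-culture of compound, cells and HCVcc-Cre (~0.5 moi), substrate is added for 15 min at room temperature and luciferase measured over 15 sec. Cells were seeded at 1,000/well and pre-cultured 4 h.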
# % is set by controls: 0 for no effect and ±100 for the full control effect; potency is the fitted concentration of half-maximal effect; tags give direction and shape of the fitted curve.
SMILES,"activity change, negative = inhibition",Potency
CCOC(=O)C1CCCN(C(=O)Cn2nc(Cc3cccnc3)c3ccccc3c2=O)C1 (centres undefined),inactive: 14.7%,
Cc1ccc(-c2csc(N(CCc3ccccc3)C(=O)COc3ccccc3)n2)cc1,inactive: -10.5%,
O=C(N/N=C/C=C\c1ccccc1[N+](=O)[O-])c1cc(-c2ccccc2)nc2ccccc12,,"inconclusive [inhibitor, single point]"
Cc1ccc(/C=C/C(=O)Nc2cccnc2)o1,inactive: 25.7%,
CCCN(C(=O)C(=O)Nc1ccc2nc3n(c(=O)c2c1)CCCCC3)c1ccc(OCC)cc1,,"inconclusive [inhibitor, partial curve]"
O=C(O)C1=C[C@@H](c2ccc(Br)cc2)C[C@@H](OCc2ccc(CO)cc2)O1,,"inconclusive [inhibitor, single point]"
CNC(=O)c1c(NC(=O)c2ccc(N3C(=O)CCC3=O)cc2)sc2c1CCCC2,,"inconclusive [inhibitor, partial curve]"
Cc1nc(/C=C/c2ccccc2)cc(/C=C/c2ccccc2)n1,inactive: -0.889%,
O=C(NCCc1csc(-c2ccc(Cl)cc2)n1)c1ccco1,,active: 11.2 µM
COc1ccc(S(=O)(=O)N(Cc2ccccc2)c2ccccc2C(=O)Nc2ccccc2C(=O)NCc2ccco2)cc1,,"inconclusive [inhibitor, single point]"
O=C(Nc1ccc2nc(-c3cccs3)[nH]c2c1)c1ccco1,,"inconclusive [inhibitor, single point]"
COC(=O)c1c(C(=O)OC)n(CCCN)c2ccc(C)cc12,,"inconclusive [inhibitor, single point]"
O=C(Cc1cccs1)Nc1nc(-c2ccc(F)cc2F)cs1,,active: 11.2 µM
COc1ccc([N+](=O)[O-])cc1NC(=O)C(C)N1CCCC1 (centres undefined),,"inconclusive [inhibitor, partial curve]"
O=C(NNC(=O)c1ccccc1[N+](=O)[O-])c1csc(N2CCOCC2)n1,inactive: 23.2%,
Cc1nc2ncnn2c(N2CCCC(C(=O)Nc3ccc4c(c3)CCC4)C2)c1C (centres undefined),,active: 10 µM
COc1ccc(CNC(=O)COC(=O)Cc2ccc(Cl)cc2Cl)cc1,,"inconclusive [inhibitor, partial curve]"
CCN(C(=O)CSc1ncn[nH]1)c1cccc2ccccc12,,"inconclusive [inhibitor, single point]"
COCC(=O)Nc1ncc(S(=O)(=O)c2ccc([N+](=O)[O-])cc2)s1,inactive: 5.66%,
COCCN(C(=O)COC(=O)/C=C/c1ccccc1Cl)c1c(N)n(Cc2ccccc2)c(=O)[nH]c1=O,,"inconclusive [inhibitor, single point]"
CN(Cc1ccccc1)C(=O)c1[nH]cnc1C(=O)N[C@@H](CCCCNC(=O)OC(C)(C)C)C(=O)OC(C)(C)C,inactive: -5.32%,
O=C(Oc1cc(Cl)ccc1Cl)c1ccc(N2CCOCC2)c([N+](=O)[O-])c1,inactive: 15.7%,
CCCn1c(=N)n(CC(O)COc2cccc(C)c2)c2ccccc21 (centres undefined),,"inconclusive [inhibitor, partial curve]"

SMILES,"activity change, negative = inhibition",Potency
CC[N+](C)(CC)CCCCOc1ccc2c(c1)C(=O)c1cc(OCCCC[N+](C)(CC)CC)ccc1-2,,"inconclusive [inhibitor, partial curve, poor fit]"
CC(C)(C)c1cc(CCC(=O)NNC(=O)c2ccncc2)cc(C(C)(C)C)c1O,,"inconclusive [inhibitor, partial curve]"
COc1ccc(-n2nnnc2-c2cccc(OC)c2)cc1,,"inconclusive [inhibitor, full curve]"
CC(=O)Nc1ccc(S[C@@H](CCN2CC[C@H](C(C)(C)C)CCC2=O)c2ccccc2)cc1,,"inconclusive [inhibitor, single point]"
Nc1nc2ccccc2cc1-c1cccs1,inactive: -23.6%,
CSc1ccc(-c2sc(Nc3ccccc3)n[n+]2-c2ccc(F)cc2)cc1,inactive: -27.4%,
CCOC(=O)C1C(C(C)=O)=C(c2ccccc2)c2ccccc2N1S(=O)(=O)C(F)(F)F (centres undefined),inactive: -28.2%,
COc1cc(/C=N/Nc2nc(C)nc3c2cnn3-c2ccccc2)ccc1O,,active: 11.2 µM
CCOC(=O)c1c(C)[nH]c(C(=O)OCC(=O)c2ccccc2)c1C,,"inconclusive [inhibitor, partial curve]"
CC1CCCCC1Nc1ncnc2sccc12 (centres undefined),,"inconclusive [inhibitor, single point]"
CCCc1cc(=O)[nH]c(SCC(=O)Nc2cc3c(cc2C(C)=O)OCO3)n1,inactive: 16.6%,
CCOC(=O)C1CCCN(Cc2ccccc2OCC)C1 (centres undefined),,"inconclusive [inhibitor, single point]"
COc1ccc(CN(C)C[C@H]2Oc3c(NC(=O)Nc4ccccc4)cccc3C(=O)N([C@H](C)CO)C[C@@H]2C)cc1,,"inconclusive [inhibitor, partial curve, poor fit]"
Cc1cc(C(=O)Nc2ccc3c(c2)CCC3)c2ccccc2n1,,"inconclusive [inhibitor, single point]"
CCOC(=O)C1CCCN(C(=O)c2cc(S(=O)(=O)N(C)C)ccc2N2CCCC2)C1 (centres undefined),inactive: 3.31%,
COc1cccc(-n2ccnc2SCC(=O)Nc2cc(OC)ccc2OC)c1,,"inconclusive [inhibitor, partial curve]"
COc1cc2c(cc1OC)[C@H](C)N(C(=S)Nc1ccc(F)cc1)CC2,inconclusive: -37.2% [inhibitor],
COC(=O)c1c(NC(=O)Cc2cccs2)sc2c1CCCC2,,active: 5.01 µM
CCOC(=O)CN(C(=O)CSc1nnc(CNc2ccc(F)cc2)o1)c1ccccc1,inactive: 1.11%,
O=C(COc1ccc(Cl)cc1Br)NC1CC1,,"inconclusive [inhibitor, partial curve]"
O=C(Nc1ccc(OC(F)(F)C(F)F)c(NC(=O)c2cccc(F)c2)c1)c1cccc(F)c1,,"inconclusive [inhibitor, full curve]"
Cc1ccc(CN(Cc2ccccn2)C(=O)Nc2ccc(C)c(C)c2)cc1,,"inconclusive [inhibitor, single point]"
COc1ccc(CC(=O)NCc2ccc3c(c2)cc(C)n3C)cc1OC,,"inconclusive [inhibitor, partial curve]"

SMILES,"activity change, negative = inhibition",Potency
CCOC(=O)C1=C(C)OC(N)=C(C#N)C1c1cc2cc(C)ccc2nc1N1CCCCC1 (centres undefined),,inactive
O=C(CSc1nc2ccccc2c(=O)n1Cc1ccc(F)cc1)NCC1CCCO1 (centres undefined),,"inconclusive [inhibitor, partial curve]"
CC(C)C[C@@]12C(=O)N(c3cccc(Cl)c3)C(=O)N1[C@H](c1ccc(Cl)cc1)[C@@H]1C(=O)N(C3CCCCC3)C(=O)[C@@H]12,inactive: 0.759%,
COc1ccccc1N1CCN(C(=O)c2c(-c3c(Cl)cccc3Cl)noc2C)CC1,,"inconclusive [inhibitor, single point]"
Cc1ccc(CN2CCN(CCCn3cnc4c(OCc5ccccc5)ncnc43)CC2)cc1,,"inconclusive [inhibitor, full curve, poor fit]"
Cc1ccc(NC(=O)COc2cccc(-n3cnnn3)c2)cc1S(=O)(=O)N1CCOCC1,,active: 11.2 µM
N#Cc1nc(COc2ccccc2)oc1N1CCOCC1,,"inconclusive [inhibitor, full curve, poor fit]"
O=C(CCN1CCN(Cc2ccccc2)CC1)NNC(=O)Cc1ccc(Cl)c(Cl)c1,,"inconclusive [inhibitor, single point]"
CSc1ncccc1C(=O)OCC(=O)c1cccc(Br)c1,,"inconclusive [inhibitor, single point]"
COc1ccc2c(c1)C(C)=CC(C)(C)N2S(=O)(=O)c1ccc(NC(C)=O)cc1,inactive: 6.35%,
COc1ccc(Br)cc1CN(C)CC(=O)NCCc1ccccc1,,"inconclusive [inhibitor, single point]"
CN1CCN(c2nc3ccccn3c(=O)c2C=O)CC1,inactive: -8.11%,
Nc1ccc(C2=Nc3cccc4cccc(c34)N2)cc1,inactive: 2.01%,
CCN(CC(=O)NC(C)C)Cc1nc2sc3c(c2c(=O)[nH]1)CCC3,,"inconclusive [inhibitor, single point]"
CC(C)[C@H](NC(=O)c1ccc(C(C)(C)C)cc1)C(=O)N1CCN(Cc2ccc3c(c2)OCO3)CC1,,active: 11.2 µM
Brc1ccc([C@H]2CN3CCSC3=N2)cc1,,"inconclusive [inhibitor, single point]"
CC(C)=C[C@H]1C[C@H](C)[C@H]2CC[C@H](C)c3c(O[C@@H]4OC[C@@H](O)[C@H](O)C4O)c(O)c(C)c1c32 (some centres undefined),,"inconclusive [inhibitor, single point]"
CCCC(OC(=O)CC1Sc2ccccc2NC1=O)C(=O)NCc1ccco1 (centres undefined),,"inconclusive [inhibitor, single point]"
COc1cc(C(=S)N2CCCC2)ccc1OCc1ccc(C)cc1,,"inconclusive [inhibitor, partial curve]"
O=C(Nc1cc(S(=O)(=O)N2CCCCC2)ccc1O)c1ccccc1NS(=O)(=O)c1ccc(F)c(F)c1,inactive: 30.9%,
CCN1CCN(Cc2ccc(NC(=O)c3ccc(C)c(NC(=O)c4csc(-c5ccncc5)n4)c3)cc2C(F)(F)F)CC1,,"inconclusive [inhibitor, partial curve]"
COc1ccc(-c2cn(-c3ccccc3)nc2CO)cc1,inactive: -20.8%,
O=C(NCc1ccc2c(c1)OCO2)c1ccc(CS(=O)(=O)c2ccc(Br)cc2)o1,,"inconclusive [inhibitor, single point]"
